Reference: the supplement of paper PMC12645437, “Orthogonal IMiD-Degron Pairs Induce Selective Protein Degradation in Cells” (ACS Chemical Biology, 2025)
This is one part of the list.

Biological target: no compound (DMSO)
Experiment: log2 fold change of degron read counts, EGFP-low vs EGFP+ sorted cells; higher = lower degron-EGFP level without compound (poor expression or instability)
Conditions: compound: DMSO control; 18 h
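Also: jurkat cells carrying a lentiviral library of mutant zinc finger degrons fused to EGFP plus mCherry, mCherry+ cells FACS sorted, degron abundance counted by next-generation sequencing.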

| Sequence | log2 fold change of degron read counts |
| --- | --- |
| FDCEVCGARFTQKGNLLRHIKL | -1.47 |
| FICNVCGARFTQKGNLLRHIKL | -1.17 |
| FLCEQCGACFTQKGNLLRHIKL | -1.68 |
| FVCNQCGHHFTQKGNLLRHIKL | -0.993 |
| FLCPICGAWFTQKGNLLRHIKL | 0.997 |
| FWCNQCGRDFTQKGNLLRHIKL | -0.375 |
| FSCPVCGAWFTQKGNLLRHIKL | 0.206 |
| LGCEICGFQCTQKGNLLRHIKL | 0.246 |
| FRCSVCGHEFTQKGNLLRHIKL | -1.39 |
| LMCEICGFKCTQKGNLLRHIKL | -0.412 |
| FWCDVCGAGFTQKGNLLRHIKL | -1.15 |
| FCCNQCGRFFTQKGNLLRHIKL | 0.968 |
| FRCSVCGHNFTQKGNLLRHIKL | 0.0813 |
| FGCPICGHGFTQKGNLLRHIKL | -0.0704 |
| FWCNICGAEFTQKGNLLRHIKL | 0.305 |
| FHCPICGHHFTQKGNLLRHIKL | 0.0381 |

| Sequence | log2 fold change of degron read counts |
| --- | --- |
| LFCPICGFSCTQKGNLLRHIKL | 1 |
| FLCSVCGHIFTQKGNLLRHIKL | 0.793 |
| FKCNICGAWFTQKGNLLRHIKL | 0.291 |
| FTCNQCGHTFTQKGNLLRHIKL | -0.814 |
| FRCEQCGAPFTQKGNLLRHIKL | -1.27 |
| FMCDVCGALFTQKGNLLRHIKL | -0.6 |
| FCCDVCGAAFTQKGNLLRHIKL | -2.64 |
| LDCPICGFECTQKGNLLRHIKL | -0.274 |
| FECDICGATFTQKGNLLRHIKL | -1.66 |
| FFCPICGRCFTQKGNLLRHIKL | -0.469 |
| FWCEVCGALFTQKGNLLRHIKL | 0.181 |
| FWCPICGHRFTQKGNLLRHIKL | 1.01 |
| FCCEQCGAHFTQKGNLLRHIKL | -2.29 |
| FHCNICGASFTQKGNLLRHIKL | -0.498 |
| FECPVCGAKFTQKGNLLRHIKL | -0.402 |
| FWCNQCGHDFTQKGNLLRHIKL | 0.667 |
